Test results from PubChem BioAssay AID1347041 (National Center for Advancing Translational Sciences (NCATS), 2019).
The campaign covered roughly 480,000 compounds. About 740 (0.15%) were called active. Inconclusive means that the source gave no clear call. Such entries were picked first, then a sample of the others. No stated cut-off is given here; in the data, active means activity change below about -30%; inconclusive means mostly about -25% to -30%; inactive means weaker than that.

These compounds were tested against L-lactate dehydrogenase A chain (Homo sapiens) (UniProt P00338) (assay: qHTS assay for inhibitors of human lactate dehydrogenase). Conditions: purified LDHA, NADH/diaphorase-resazurin fluorescence; active compounds read low.
Outline: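 Human LDH5 (2 nM) was incubated with 0.06 mM NADH and 0.2 mM pyruvate for 5 min at room temperature in Tris pH 7.4. Remaining NADH was coupled through diaphorase/resazurin, and resorufin fluorescence was read at 0 and 20 min.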
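Further: values are at about 110 or 230 µM; plate controls were DMSO wells for no effect and wells without enzyme for full effect.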

| SMILES | activity change |
| --- | --- |
| Cc1ccc(NC(=O)c2ccccc2Oc2ccccc2)cc1S(=O)(=O)N(C)C | inconclusive: -28.4% |
| Cn1cccc/c1=N\c1cccc[n+]1C | inconclusive: -28.1% |
| Cc1cccc(-n2ncc3c2CCCC3NC(=O)C2CCOCC2)c1C (configuration not stated) | inactive: -7.41% |
| CN1CCN(S(=O)(=O)c2ccc(N(C)CCOc3cccc(Cl)c3)nc2)CC1 | inactive: -3.03% |
| Cc1sc2ncnc(N(C)CCc3ccccn3)c2c1C | active: -32.3% |
| Cc1ccccc1NC(=O)Cn1nnc(S(=O)(=O)c2ccc(C(C)(C)C)cc2)c1N | inconclusive: -28.5% |
| Cc1cc2c(C)cc(=O)[nH]c2cc1NC(=O)CCl | inactive: 2.27% |
| Cc1ccc(NC(=O)c2cc3ncccn3n2)cc1C | inconclusive: -26.3% |
| OCCN1CCN(CC(O)COC(c2ccc(F)cc2)c2ccc(F)cc2)CC1 (configuration not stated) | inconclusive: -26.6% |
| COC(=O)c1ccccc1OCCCCN1CC(C)OC(C)C1 (configuration not stated) | active: -30.8% |
| Cc1nc(SC2=CS(=O)(=O)c3ccccc32)oc1C | inconclusive: -27.1% |
| Cc1c(NC(=O)c2cc(-n3cnnc3)ccc2Cl)cccc1-c1nc2ccccc2o1 | inconclusive: -25.6% |
| COc1cc(/C=C(\C#N)c2nc3ccccc3[nH]2)cc(Br)c1OC | inconclusive: -26.9% |
| CCN1CCN(CCOc2ccc(Cl)cc2)CC1 | active: -33.9% |
| CCC(C)NC(=O)CN1C(=O)N(c2ccc(C(C)C)cc2)S(=O)(=O)c2ccccc21 (configuration not stated) | inconclusive: -26.1% |
| C=CCOc1ccc(C=NNc2ccc(S(=O)(=O)Nc3ccccc3C(=O)O)cc2[N+](=O)[O-])cc1OC | inconclusive: -26.2% |
| COc1ccccc1Cn1c(C2CC(=O)N(c3ccccc3OC)C2)nc2ccccc21 (configuration not stated) | inconclusive: -27.2% |
| OC(Cc1ccc2ccccc2n1)c1ccc(Cl)c(Cl)c1 (configuration not stated) | inconclusive: -29.2% |
| CCOC(=O)c1cccc(NS(=O)(=O)c2cc(-c3nn(C)c(=O)c4c3CCCC4)ccc2C)c1 | inconclusive: -26.3% |
| Cc1cc(Cl)cc(Br)c1OCCCCn1cncn1 | inconclusive: -29% |
| CCCCCCCn1ccc(=N)cc1 | inconclusive: -28.1% |
| COc1ccc(C(=O)Nc2ccc3c(c2)N(C2CCCC2)C(=O)c2ccccc2S3)cc1OC | inactive: 2.11% |
| COc1ccccc1-c1ccc([C@@H]2C[C@H]3[C@H](CON3C)CN2C(=O)c2ccc(-c3ccccc3)cc2)cc1 | inconclusive: -27% |

| SMILES | activity change |
| --- | --- |
| Cc1ccc(Cl)cc1-c1cc(C(=O)NCc2ccco2)[nH]n1 | inactive: -6.26% |
| CC1CC(C)CN(Cc2nc(N)nc(Nc3ccc4ccccc4c3)n2)C1 (configuration not stated) | inactive: 17.3% |
| CCN1CCN(c2ncnc3scc(-c4ccc(C)c(C)c4)c23)CC1 | inactive: -6.49% |
| Cc1cc(=O)[nH]c(SCc2cccc3cccnc23)n1 | inactive: -6.95% |
| CN(C)C(=O)c1ccc(CNC(=O)c2nccnc2N)cc1 | inconclusive: -28.3% |
| Cc1cccc(OCc2nnc(SCC(=O)Nc3ccc(C)cc3C)o2)c1 | inconclusive: -31.6% |
| CCOC(=O)N1CCN(S(=O)(=O)N2CCCC(C(=O)NCCCN3CC(C)CC(C)C3)C2)CC1 (configuration not stated) | inconclusive: -25.2% |
| C=CCOc1ccc(C(c2c(O)nc(SC)[nH]c2=O)c2c(O)nc(SC)[nH]c2=O)cc1 | inactive: -4.7% |
| Cc1oc2cc(OCC(=O)O)ccc2c(=O)c1Oc1ccccc1 | inconclusive: -27.9% |
| N#Cc1cn2ncnc2nc1N | active: -30.6% |
| CCCNC(=O)c1ccc2c(=O)c(O)c(-c3ccsc3)[nH]c2c1 | inactive: 0.875% |
| CN(C)S(=O)(=O)N(CC(=O)Nc1ccccc1F)c1ccccc1 | inconclusive: -26.3% |
| Cc1ncc(-c2ccc(S(=O)(=O)Nc3ccc(C)c(F)c3)cc2)o1 | active: -31.2% |
| CCC(=O)NCC(=O)NC1CCN(S(=O)(=O)c2ccc(NC(C)=O)cc2)CC1 | inconclusive: -28.8% |
| Cc1cccc(C(=O)n2nc(NCc3cccs3)nc2NCc2cccs2)c1 | inconclusive: -27.8% |
| CN(C)CCNc1oc(-c2cccs2)nc1C#N | inconclusive: -26.5% |
| O=C(Nc1cccc(OC(=O)c2ccc(Br)o2)c1)c1ccccc1 | inactive: -2.75% |
| Cc1cc(OCCCN2CCN(Cc3ccccc3)CC2)ccc1[N+](=O)[O-] | inconclusive: -25.1% |
| CSc1ccccc1NC(=O)CN(C)CC(=O)Nc1ccccc1F | active: -31.1% |
| N#Cc1ccc(C(=O)NC2CCSc3ccccc32)cc1 (configuration not stated) | inactive: 6.32% |
| Cc1ccc(C(=O)N/N=C/c2ccc(Br)s2)cc1 | inconclusive: -28.6% |
| CCOc1ccc2c(=O)c(Oc3ccc(OC)cc3)c(C(F)(F)F)oc2c1 | inconclusive: -28% |
| Cc1ccc2c(CN(Cc3ccco3)Cc3ccco3)cc(=O)oc2c1C | inactive: -1.29% |

| SMILES | activity change |
| --- | --- |
| CC(=O)Nc1ccc(NC(=O)c2cc(-c3cccs3)nc3ccccc23)cc1 | inconclusive: -27.4% |
| Cc1cc(C)c(NC(=O)Cn2cc(S(=O)(=O)Cc3ccccc3F)c3ccccc32)c(C)c1 | active: -31.2% |
| c1ccc(-c2ccccc2OCCCN2CCOCC2)cc1 | active: -30.1% |
| FC(F)(F)c1ccccc1/C=N/Nc1ccc(Cl)c(Cl)c1 | inconclusive: -29.6% |
| CC(=O)c1c(C)[nH]c(-c2csc(NC3CCCC3)n2)c1C | inconclusive: -26.6% |
| O=C(Nc1nc(-c2ccc(Cl)s2)cs1)C1CC1 | active: -34.4% |
| Cc1cccc(-n2nc(C)c(C(=O)N(C)Cc3ccccc3)c2-n2cccc2)c1 | inactive: 5.06% |
| C[C@H](CO)N1C[C@H](C)[C@@H](CN(C)S(=O)(=O)c2cccc(F)c2)OCc2cn(nn2)CCCC1=O | active: -34.3% |
| O=[N+]([O-])c1cc(Br)c(O)c(/C=N/Nc2nnnn2-c2cccc3ccccc23)c1 | active: -36.8% |
| N#Cc1c(N)nc2c3c(sc(=N)c2c1N)NC(=O)CC3c1ccccc1Cl (configuration not stated) | inconclusive: -28.2% |
| CCOc1ccc(CN(C)CCc2ccccn2)cc1 | inconclusive: -26.2% |
| O=C(CNC1CC1)Nc1cc(C(F)(F)F)ccc1Cl | inconclusive: -25.8% |
| OCc1ccccc1-c1ccc2nncn2c1 | inactive: -3.76% |
| Cc1cc(SCC(=O)NCC(c2cccs2)N2CCOCC2)c(C)cc1Br (configuration not stated) | inactive: -2.37% |
| CCCCCCCCCN(CCCCCCCCC)c1ccc(/C=C/c2ccnc3ccccc23)cc1 | inactive: 2.48% |
| COCC(C)NC(C(=O)Nc1ccc(Cl)c([N+](=O)[O-])c1)c1ccccc1 (configuration not stated) | inconclusive: -28.7% |
| COC(=O)c1ccccc1-c1c2ccc(=N)cc-2oc2cc(N)ccc12 | active: -58.4% |
| CCOC(=O)Cc1csc(NC(=O)c2sc3nc4ccc(CC)cc4cc3c2N)n1 | inconclusive: -26.5% |
| O=C(Nc1ccc2c3c(cccc13)CC2)C(Cl)(Cl)Cl | inactive: 3.23% |
| COCCn1nnnc1C(c1cc2cccc(C)c2[nH]c1=O)N1CCN(c2ccccc2F)CC1 (configuration not stated) | inactive: 10.4% |
| CCN(CC)C(=O)CCCOc1ccc(Cl)cc1Cl | inactive: -4.47% |
| Cc1ccc(C)c(NC(NC(=O)c2cccc(Cl)c2)C(Cl)(Cl)Cl)c1 (configuration not stated) | inconclusive: -28.6% |
| O=C(CN1CCCCC1)Nc1oc2ccccc2c(=O)c1-c1ccc(F)cc1 | inactive: -0.591% |

| SMILES | activity change |
| --- | --- |
| Clc1cc(Cl)c(OCCCCn2cncn2)c(Cl)c1 | inconclusive: -28.2% |
| CC(=O)c1cccc(NC(=O)CN2CCN(Cc3ccccc3)CC2)c1 | inconclusive: -28.3% |
| Cc1ccc(-c2noc(-c3cc4ccccc4oc3=O)n2)cc1 | inconclusive: -29.6% |
| CCOc1ccc2c3c(cccc13)C(=O)C=C2C | inconclusive: -27.7% |
| O=C(CC1Sc2ccccc2NC1=O)OCc1cc(=O)oc2cc(O)ccc12 (configuration not stated) | inconclusive: -26% |
| CCC(=O)NCc1ccc(-c2nc3ccccc3s2)cc1 | active: -31.2% |
| O=C(Nc1cc([N+](=O)[O-])ccc1O)c1cccc(NC(=O)c2ccco2)c1 | active: -45.4% |
| Cc1ccccc1OCC(O)Cn1c(N)nc2c1c(=O)n(C)c(=O)n2C (configuration not stated) | active: -37.1% |
| Cc1ccc(-c2cc(C(=O)Nc3nncs3)c3ccccc3n2)c(C)c1 | inactive: -2.14% |
| COc1cccc(-c2nc(SCc3cc(=O)n4c5c(sc4n3)CCCC5)n[nH]2)c1 | inconclusive: -26.3% |
| CCc1nc(C)ccc1OCC(=O)N(CC)CC | inconclusive: -27.6% |
| Cc1ccc(S(=O)(=O)N2CCOCC2)cc1NC(=O)CNCc1cccnc1 | active: -40.2% |
| O=S(=O)(Cc1cccc(F)c1)c1ccc2ccccc2c1 | inconclusive: -27% |
| CN1CCCc2ccccc21 | inconclusive: -25.5% |
| Fc1ccc(CN2CCCCCCC2)cc1F | inconclusive: -29.2% |
| CC(C)=N/N=C1/NC(=O)C(CC(=O)Nc2cc(Cl)ccc2C)S1 (configuration not stated) | inconclusive: -25% |
| COCCN1CCN(C(=O)c2cc(COc3ccc(F)cc3F)on2)CC1 | active: -56.4% |
| CNC(=O)C1CCC(Cn2c(=O)c3sccc3n(CC(=O)Nc3ccc(C)c(C)c3)c2=O)CC1 (configuration not stated) | inconclusive: -26.1% |
| O=S(=O)(NCc1ccccn1)c1ccccc1 | inactive: -2.56% |
| CC(NCc1ccccc1Cl)C(=O)Nc1ccc(S(=O)(=O)N2CCCC2)cc1 (configuration not stated) | inconclusive: -28.7% |
| COc1ccccc1NC(=O)c1cc[n+](C)cc1 | inconclusive: -26.6% |
| CN1N=C(N)c2cn(C3OC(COP(=O)(O)O)C(O)C3O)c3ncnc1c23 (configuration not stated) | active: -31.9% |
| Cc1cc(C(=O)OCC(=O)Nc2ccccc2C(C)C)c2ccccc2n1 | active: -39.9% |
